According to PubChem BioAssay AID686971 (National Center for Advancing Translational Sciences (NCATS), 2013):
The whole screen tested about 360,000 compounds, of which about 7,500 (2.1%) were called active. Inconclusive results, whose numbers are uncertain, are shown with a selection of clear calls. Calls follow the shape of the dose curve; as a rule, active = well fitted cell-killing curve with a large enough effect; inconclusive = small, poorly fitted or top-dose-only effect, or effect the other way, or another doubt; inactive = no such curve, though single readings can be large or run the other way. No potency is given beside an inconclusive call; the fits are too rough.

Assay: qHTS for induction of synthetic lethality in tumor cells producing 2HG: qHTS for the HT-1080-IDH1KD cell line;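 as to activity, negative = toxicity: 0% = DMSO wells and -100% = cell-free medium wells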
Details: HT-1080 IDH1 knockdown viability, ATP luminescence, 48 h; activity, negative = toxicity: at 46.1 µM (top of the series) unless noted
Method in brief: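 Using the IDH1-knockdown HT-1080 line run in the same batch and compound series as the NT line, viability after 48 h at 37 °C was determined by CellTiter-Glo luminescence and expressed as % activity.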
Potency is read from the fitted curve at half-maximal effect; tags tell the direction and shape of the fitted curve.

Which Potency does the source give for `C#CCOCCOCCOCCNc1nc(N2CCN(C(=O)CCCCCCCCCCNC(=O)[C@@H](CCSC)n3cc(CCO)nn3)CC2)nc(N2CCN(C(=O)CCCCCCCCCCNC(=O)[C@H]([C@@H](C)CC)n3cc(CCCCCN)nn3)CC2)n1` here?
Its Potency is inconclusive [cytotoxic, single point].

With `CC12CCC(=O)C=C1C(F)CC1C2C(O)CC2(C)C1CCC2(O)C(=O)CO` (stereo not drawn) as the compound, how does the activity, negative = toxicity read?
The activity, negative = toxicity was inconclusive: 27.7%.

For `CNC(=S)N/N=C/c1cn(Cc2ccc(C)cc2)c2ccccc12`, which Potency is on record?
The Potency was inconclusive [cytotoxic, single point].

Which Potency does the source give for `O=C(CSc1nc2ccccc2c(=O)n1CCCN1CCOCC1)Nc1ccc(Br)cc1` here?
The Potency was active: 13 µM.

With `Cn1c2c(c(=O)[nH]c1=O)C(c1cccc(O)c1)C1=C(N2)c2ccccc2C1=O` (stereo not drawn) as the compound, how does the Potency read?
The Potency was inconclusive [cytotoxic, partial curve].

With `CCn1c(CNC(=O)COc2ccc(C(C)C)cc2)nnc1SCC(=O)Nc1ccccc1` as the compound, how does the Potency read?
Its Potency is inconclusive [cytotoxic, single point].

For `COc1ccc(CCNC(=O)CCc2ccc(S(=O)(=O)NCC(C)C)cc2)cc1OC`, which Potency is on record?
The Potency was “inactive”.

For `O=CNc1cc(-c2ccc(C(=O)NC3CC3)cc2)cn2c(-c3ccc(F)cc3)cnc12`, which Potency is on record?
Its Potency is active: 8.2 µM.

For `COc1cccc(/C=N/NC(=O)CNC(=O)CCc2ccccc2)c1O`, which Potency is on record?
The Potency was active: 20.6 µM.

With `Cc1ccc(C2(c3noc(CN4CCC(c5ccncc5)CC4)n3)CCCC2)cc1` as the compound, how does the Potency read?
The Potency was inconclusive [cytotoxic, single point].

Which Potency does the source give for `CC(C)N1C(=O)/C(=C\c2nc3ccccc3c(=O)[nH]2)c2ccccc21` here?
The Potency was inconclusive [cytotoxic, single point].

With `CC1Cc2ccccc2N1C(=O)Cn1nnc(-c2ccccc2NC(=O)C2CCC2)n1` (stereo not drawn) as the compound, how does the Potency read?
Its Potency is inconclusive [cytotoxic, single point].

With `Nc1nc(NCCCN2CCOCC2)nc(Nc2cccc(F)c2)c1[N+](=O)[O-]` as the compound, how does the Potency read?
Its Potency is inconclusive [cytotoxic, single point].

Which Potency does the source give for `Cc1ccc2nc(C(C)(C)C)c(Cc3ccccc3C(F)(F)F)n2c1` here?
The Potency was inconclusive [cytotoxic, single point].

Which Potency does the source give for `COc1ccccc1CNC(=O)c1ccc(SC)cc1OC` here?
Its Potency is inconclusive [cytotoxic, single point].

Which Potency does the source give for `COc1cc(C(=O)Sc2ccc(Cl)cc2)cc(OC)c1OC` here?
Its Potency is inconclusive [cytotoxic, single point].

Which Potency does the source give for `C=CCNc1nc2cc(-c3cccc(Cl)c3)sc2c(=O)n1C` here?
Its Potency is inconclusive [cytotoxic, single point].

With `CCc1ccc2nc(N(CCCN(C)C)C(=O)c3ccc(C(=O)c4ccccc4)cc3)sc2c1` as the compound, how does the Potency read?
Its Potency is inconclusive [cytotoxic, single point].

With `O=C(OCc1ccccc1)c1ccc(NCc2cc(O)ccc2O)cc1` as the compound, how does the Potency read?
The Potency was active: 5.8 µM.

With `O=C(CC(SCc1ccco1)c1ccc(O)cc1)c1cccs1` (stereo not drawn) as the compound, how does the Potency read?
The Potency was “inactive”.

For `CCOc1ccccc1-c1c2cc(O)c(=O)cc-2oc2cc(O)c(O)cc12`, which Potency is on record?
Its Potency is inconclusive [cytotoxic, single point].

For `CC(=O)Nc1ccc(C(=O)OCC(=O)NCc2ccccc2)cc1`, which Potency is on record?
The Potency was active: 25.9 µM.

For `CCC(=O)Nc1ccc(/C(C)=N/NC(=O)c2c(Br)c(C)nn2C)cc1`, which Potency is on record?
Its Potency is “inactive”.

With `COc1ccc(/C=C/C(=O)N(C(C)C)C(C)C)cc1Br` as the compound, how does the Potency read?
The Potency was inconclusive [cytotoxic, single point].

For `COc1ccc(-c2noc(CCC(=O)N3CCN(c4ccccc4F)CC3)n2)cc1`, which Potency is on record?
Its Potency is “inactive”.

For `Cc1c(C(=O)Nc2cnccn2)oc2ccccc12`, which Potency is on record?
Its Potency is inconclusive [cytotoxic, single point].

Which Potency does the source give for `CC(=O)CSc1nc(N)c(C#N)c(-c2cccs2)c1C#N` here?
Its Potency is inconclusive [cytotoxic, single point].

For `O=C1N[C@@H](c2ccccc2)COC(=O)[C@@H](Cc2ccc(F)cc2)CC/C=C/C[C@@H]1CC(=O)N(CCO)Cc1ccccc1`, which Potency is on record?
The Potency was inconclusive [cytotoxic, single point].

With `Cc1ccccc1Cn1ccc(NC(=O)c2cnn3c2NC(c2ccccc2)CC3C(F)(F)F)n1` (stereo not drawn) as the compound, how does the Potency read?
The Potency was inconclusive [cytotoxic, single point].

Which Potency does the source give for `CCCCSc1nnc2[nH]c(=O)cc(N)n12` here?
Its Potency is “inactive”.

Which Potency does the source give for `O=C(CCl)N(c1ccccc1)c1c[nH]c2ccccc12` here?
The Potency was active: 6.51 µM.

For `C#Cc1ccc(NC(=O)C2(C)CCN2C(=O)Cc2ccc(C(C)C)cc2)cc1` (stereo not drawn), which Potency is on record?
The Potency was inconclusive [cytotoxic, single point].

With `Clc1ccc(CNc2ccc(N3CCN(Cc4ccccc4)CC3)cc2)cc1` as the compound, how does the Potency read?
The Potency was inconclusive [cytotoxic, single point].

For `C[C@H](CCC(=O)OCc1cn(CC(=O)c2ccc(O)cc2)nn1)C1CC[C@H]2[C@@H]3CC[C@@H]4C[C@H](O)CC[C@]4(C)[C@H]3C[C@H](O)[C@]12C` (stereo partly drawn), which Potency is on record?
The Potency was inconclusive [cytotoxic, single point].

Which Potency does the source give for `CSc1cccc(CNC(=O)C2CCC(=O)N(CCc3ccccc3)C2)c1` (stereo not drawn) here?
The Potency was “inactive”.

Which Potency does the source give for `Cc1cccc(N=Nc2ccc(O)c3ncccc23)c1` here?
The Potency was active: 7.31 µM.

Which Potency does the source give for `COc1ccc(N(CC(=O)Nc2ccccc2Cl)S(=O)(=O)c2ccc(C)cc2)cc1OC` here?
The Potency was “inactive”.

Which Potency does the source give for `Cc1ccccc1Cn1cc(C)c(=O)[nH]c1=O` here?
Its Potency is “inactive”.

For `CCOc1ccccc1NC(=S)N1CCC(NC(=O)NC23CC4CC(CC(C4)C2)C3)CC1`, which Potency is on record?
Its Potency is “inactive”.

For `CC1COC(Cn2c3ccccc3c3ccccc32)O1` (stereo not drawn), which Potency is on record?
The Potency was inconclusive [cytotoxic, single point].

For `Cc1cc(OCc2nc(N)nc(N)c2-c2ccc(Cl)c(Cl)c2)ccc1[N+](=O)[O-]`, which Potency is on record?
The Potency was active: 0.82 µM.

For `CCn1c(CNc2ccc(Cl)cc2)nnc1SCc1ccc(Cl)cc1`, which Potency is on record?
The Potency was inconclusive [cytotoxic, single point].

Which Potency does the source give for `Cc1ccc(O)c(-c2cc(-c3cccc(F)c3)n[nH]2)c1` here?
Its Potency is “inactive”.

With `O=C1c2ccccc2C(=O)N1CCCn1nnc(-c2ccc(N3CCOCC3)cc2)n1` as the compound, how does the Potency read?
The Potency was inconclusive [cytotoxic, single point].

With `O=C(NCCc1cccc(Cl)c1)c1ccc(OC2CCN(Cc3ccccn3)CC2)cc1` as the compound, how does the Potency read?
The Potency was inconclusive [cytotoxic, single point].

Which Potency does the source give for `CCC(C)(C)c1ccc(Oc2ccc(N)cc2)cc1` here?
Its Potency is inconclusive [cytotoxic, single point].

Which Potency does the source give for `CCCC(CCC)C(=O)Nc1ccc2c(c1)N(C(=O)CCN1CCN(C)CC1)c1ccccc1CC2` here?
The Potency was inconclusive [cytotoxic, single point].

For `O=c1c2c3n(c(=S)nc2[nH]n1-c1ccccc1)CCCCC3`, which activity, negative = toxicity is on record?
Its activity, negative = toxicity is inconclusive: 30.8%.

Which Potency does the source give for `CC(C)C(C(=O)Nc1nccs1)c1ccc(Cl)cc1` (stereo not drawn) here?
Its Potency is active: 10.3 µM.

Which Potency does the source give for `Cc1ccc(S(=O)(=O)NCc2c(Cl)cccc2Oc2ccccc2)cc1` here?
The Potency was inconclusive [cytotoxic, single point].

Which Potency does the source give for `CNCc1c(OCc2ccccc2F)ccc2ccccc12` here?
The Potency was inconclusive [cytotoxic, single point].

With `Cc1cccc(Nc2nc(C)cc(C)n2)c1` as the compound, how does the Potency read?
Its Potency is “inactive”.

Which Potency does the source give for `CCOc1ccc(Br)cc1C1=NN(C(C)=O)C(c2ccc([N+](=O)[O-])s2)O1` (stereo not drawn) here?
Its Potency is inconclusive [cytotoxic, single point].

With `Cc1csc(NC(=O)CSc2ccc(-c3ccccn3)nn2)n1` as the compound, how does the Potency read?
Its Potency is inconclusive [cytotoxic, single point].

For `CC(C)Cc1csc(NC(=O)c2ccc(F)cc2)c1C(=O)O`, which Potency is on record?
The Potency was inconclusive [cytotoxic, single point].

For `CC1(C)SC(=S)N(NC(=O)Nc2cccc3ccccc23)C1N(O)C(=O)Nc1ccccc1` (stereo not drawn), which Potency is on record?
Its Potency is inconclusive [cytotoxic, single point].

For `COC(=O)c1ccccc1NC(=O)COC(=O)C1CCCCC1`, which Potency is on record?
The Potency was “inactive”.

Which Potency does the source give for `C/C(=N\NC(=O)c1cccc(S(=O)(=O)Nc2cccc(Cl)c2)c1)c1cccs1` here?
The Potency was inconclusive [cytotoxic, partial curve].

For `COc1ccc2[nH]c(C(=O)N/N=C/c3ccc(O)cc3O)cc2c1`, which Potency is on record?
Its Potency is active: 2.31 µM.

With `COc1ccc(CCN2C(=O)CSC2=Nc2ccc(C)cc2C)cc1OC` as the compound, how does the Potency read?
Its Potency is “inactive”.

With `CC(=O)NC12CC3CC(C1)CC(C(=O)Nc1nc4ccc(F)cc4s1)(C3)C2` as the compound, how does the Potency read?
Its Potency is inconclusive [cytotoxic, single point].

Which Potency does the source give for `CC1(C(=O)Nc2ccc(Cl)cc2)Cc2c(-c3cccc(C(F)(F)F)c3)ccnc2O1` (stereo not drawn) here?
Its Potency is inconclusive [cytotoxic, single point].

Which Potency does the source give for `COc1ccc(-c2nn(-c3ccccc3)cc2/C=N/O)cc1` here?
The Potency was inconclusive [cytotoxic, single point].

For `Cc1nnc(NC(=O)c2oc3c(ccc4ccccc43)c2C)s1`, which Potency is on record?
The Potency was inconclusive [cytotoxic, partial curve].

With `Cc1ccc(F)cc1C(=O)N1CCCC(c2cc(C(=O)Nc3ccccc3)no2)C1` (stereo not drawn) as the compound, how does the Potency read?
Its Potency is inconclusive [cytotoxic, partial curve].

With `O=C1C(=O)c2c(C(=O)c3ccccc3)coc2-c2ccccc21` as the compound, how does the Potency read?
Its Potency is inconclusive [cytotoxic, single point].

With `CCN(CC)c1ncnc2c1ncn2[C@H]1CN(Cc2ccc(-c3ccccc3)cc2)C[C@@H](CO)O1` as the compound, how does the Potency read?
Its Potency is inconclusive [cytotoxic, partial curve, poor fit].

For `Cc1ccc(C)c(NC(=S)NNc2ccc(F)cc2F)c1`, which Potency is on record?
The Potency was active: 25.9 µM.
